Measured values taken from patent US10654925B2, “Anti-marinobufagenin antibodies and uses thereof” (priority 2018, dated 2020).

What was measured:
Assay type in all cases: binding
[1] = Competitive ELISA, relative CTS specificity, free MBG as competitor; conditions: competition with immobilized MBG-BSA; normalized to MBG = 100%
Procedure: (§1) The specificity (relative affinity) of anti-MBG antibodies for MBG relative to various cardiotonic steroids (CTSs) was determined in a competitive ELISA. Each anti-MBG antibody was tested for its binding to immobilized MBG in the presence of free MBG, resibufogenin (RBG), cinobufagin (CINO), ouabain (OUB) or digoxin (DIG) as a competitor. A constant amount of an anti-MBG antibody (typically 1-5 μg/mL) and varying concentrations of each CTS (from 10^−12M to 10^−5M) were pre-incubated before being added to the MBG-BSA-coated wells. After washing of the wells, an anti-human Fc, HRP-conjugated secondary antibody (at 1:5000 dilution) was added to the wells and incubated at 37° C. for 1 hr. After washing of the wells, an appropriate HRP reagent (e.g., TMB ultra, Thermo Fisher) was added to the wells. OD at 450 nm was measured by a microplate reader. MBG at 10 μM was assumed to be 100% competed, and MBG at 1 pM was assumed to be 0% competed. The data was plotted as a titration of antibody-antigen binding relative to free CTS concentration in the competition reaction to determine the free CTS concentration (μM) giving 50% maximal binding of antibody to immobilized MBG. The relative specificity of an antibody for a CTS was normalized to MBG=100%.

[2] = Competitive ELISA, relative CTS specificity, CINO as competitor; conditions: competition with immobilized MBG-BSA; normalized to MBG = 100%
Procedure: as §1

[3] = Competitive ELISA, relative CTS specificity, OUB as competitor; conditions: competition with immobilized MBG-BSA; normalized to MBG = 100%
Procedure: as §1

[4] = Competitive ELISA, free CTS competitors overall (summary and footnote); conditions: competitors RBG, CINO, OUB, DIG; Table 2
Procedure: as §1

[5] = Competitive ELISA, relative CTS specificity, RBG as competitor; conditions: competition with immobilized MBG-BSA; normalized to MBG = 100%
Procedure: as §1

[6] = Competitive ELISA, relative CTS specificity, DIG as competitor; conditions: competition with immobilized MBG-BSA; normalized to MBG = 100%
Procedure: as §1

B1: R4CE-1E: human anti-MBG antibody, VH SEQ ID NO: 57, VL SEQ ID NO: 58 (antibody, listed as Homo sapiens, V domains shown)
VH: QVQLQESGSGLVKPSQTLSLTCTVSGGSISSSGYYWGWIRQPPGKGLEWIGSIYHSGSTYYNPSLKSRVTISVDTSKNQFSLKLSSVTAADTAVYYCARVQLWQRGFDYWGQGTLVTVSS
VL: [about 120 residues not listed]
Rel. CTS Specificity as % of MBG Binding: MBG [1]: 100% | Rel. CTS Specificity as % of MBG Binding: CINO [2]: 4% | Rel. CTS Specificity as % of MBG Binding: OUB [3]: 0% | reaction with CTS competitor molecules [4]: reacted with the CTS competitors RBG and CINO | Rel. CTS Specificity as % of MBG Binding: RBG [5]: 12.5% | Rel. CTS Specificity as % of MBG Binding: DIG [6]: 0%
